The whole screen tested about 150,000 compounds, of which about 540 (0.36%) showed an effect of 50% or more. The list shows a part of the results.
system: Plasmodium falciparum; assay: Primary screen in NF54 nanoGlo assay, in single point, at 2uM, 72h; a lower Z score goes with more inhibition; type: functional, Erythrocyte; details: timepoint 72 hour

SMILES | % Inhibition [%] | Z score
Cc1nnc([C@@H]2Cc3ccccc3CN2)o1 | -8 | 1.15
CN(C)c1nc([C@H]2C[C@@H](NC(=O)N3CCOCC3)C2)cc(=O)[nH]1 | 11 | -1.46
CCC1CN(CCn2cccn2)CCN1CC(O)c1ccccc1 (stereo not drawn) | -3 | 0.35
CCc1cc(N2CCC(O)(Cn3ccnn3)CC2)nc(CC)n1 | -2 | 0.3
CC(C)CCC(=O)NCc1csc(N(C)C(=O)CCC(C)C)n1 | 6 | -0.73
C[C@@H](C(=O)NCCC1=CCCCC1)N(C)Cc1cccc(F)c1 | -1 | 0.19
c1ccc(COCCN2CCO[C@H](C3CC3)C2)cc1 | -13 | 1.24
O=C(NC1CCC(O)CC1)N1CCC[C@H]1c1cccs1 (stereo partly drawn) | -8 | 1.1
O=C(NCc1cccc(C(F)(F)F)c1)c1ccc(CN2CCn3cccc3[C@H]2c2ccccc2F)o1 | 14 | -1.91
CN(C)c1noc(COc2ccc3c(c2)CCC3)n1 | -15 | 1.65
O=C(Cn1cc(C(=O)c2ccncc2)c(=O)c2cc(Br)ccc21)Nc1ccc(F)cc1F | -5 | 0.89
CCN(C(=O)c1sc(NC(=O)Cc2ccccc2)c(C#N)c1C)C1CCCCC1 | 34 | -3.81
Cc1cc(-c2nc(C(=O)N(CC(F)F)CC3CCC3)co2)ccn1 | 1 | -0.16
N#C[C@@H](C(=O)c1ccco1)c1nc2cc(F)ccc2s1 | -3 | 0.51
Cc1cc(C)c(C(=O)O)cc1NC(=O)C1(S(C)(=O)=O)CCC1 | 7 | -0.61
CC(C)c1ccc(C(=O)N2CCCC[C@@H]2CCc2ccc(O)cc2)c(=O)[nH]1 | -9 | 1.02
COC(=O)c1cn(CCc2cn3ccccc3n2)cc2c(O)nnc1-2 | -7 | 0.84
CCN(CC)C(=O)[C@@H]1C[C@H](NC(=O)c2ccncc2)CN1C1CCOCC1 | 7 | -1.25
CN(C)C(=NCCc1cccs1)N(C)C | -2 | 0.29
CC[C@H](NC(=O)N1CCNC(=O)C1)c1ccccc1Br | -10 | 1.56
Cn1cc(CCS(=O)(=O)c2cccc(O)c2)cn1 | -5 | 0.84
O=C(Nc1ccc(Cl)cc1-c1ccccc1)N1CC(O)C(O)C1 (stereo not drawn) | 0 | -0.01
CC(=O)N[C@H]1CCN(C2CCN(c3cccc(-c4ccco4)c3)CC2)C1 | -8 | 0.99
COc1ccc2c(c1)OCC[C@@H]2NC(=O)N(CC1CC1)CC1CC1 | -5 | 0.59
